# Measured values published in PubChem BioAssay AID488969 (Vanderbilt High Throughput Screening Facility, 2010).
# Over roughly 110,000 compounds, “z-score” has its median near -0.1; the highest 2% begin near 2. The list shows a part of the results. The source made the active and inactive calls.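 The calls were made as follows: active = z-score in the third read window above 3 or below -3; inactive = the rest.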
# Molecular target: Metabotropic glutamate receptor 8 (Rattus norvegicus) (UniProt P70579)
# Test: mGluR8 Gi/Go-coupled signaling modulation – cell-based, rat, thallium flux, HTS, primary screen (AID 488969)
# Settings: HEK293 rat mGluR8, GIRK (G protein-gated inwardly rectifying potassium channel) thallium flux, FluoZin2; at 10 µM; stronger effect = higher value; submaximal glutamate (EC20) added with thallium
# Chain of UniProt P70579 (P70579 whole entry, looked up): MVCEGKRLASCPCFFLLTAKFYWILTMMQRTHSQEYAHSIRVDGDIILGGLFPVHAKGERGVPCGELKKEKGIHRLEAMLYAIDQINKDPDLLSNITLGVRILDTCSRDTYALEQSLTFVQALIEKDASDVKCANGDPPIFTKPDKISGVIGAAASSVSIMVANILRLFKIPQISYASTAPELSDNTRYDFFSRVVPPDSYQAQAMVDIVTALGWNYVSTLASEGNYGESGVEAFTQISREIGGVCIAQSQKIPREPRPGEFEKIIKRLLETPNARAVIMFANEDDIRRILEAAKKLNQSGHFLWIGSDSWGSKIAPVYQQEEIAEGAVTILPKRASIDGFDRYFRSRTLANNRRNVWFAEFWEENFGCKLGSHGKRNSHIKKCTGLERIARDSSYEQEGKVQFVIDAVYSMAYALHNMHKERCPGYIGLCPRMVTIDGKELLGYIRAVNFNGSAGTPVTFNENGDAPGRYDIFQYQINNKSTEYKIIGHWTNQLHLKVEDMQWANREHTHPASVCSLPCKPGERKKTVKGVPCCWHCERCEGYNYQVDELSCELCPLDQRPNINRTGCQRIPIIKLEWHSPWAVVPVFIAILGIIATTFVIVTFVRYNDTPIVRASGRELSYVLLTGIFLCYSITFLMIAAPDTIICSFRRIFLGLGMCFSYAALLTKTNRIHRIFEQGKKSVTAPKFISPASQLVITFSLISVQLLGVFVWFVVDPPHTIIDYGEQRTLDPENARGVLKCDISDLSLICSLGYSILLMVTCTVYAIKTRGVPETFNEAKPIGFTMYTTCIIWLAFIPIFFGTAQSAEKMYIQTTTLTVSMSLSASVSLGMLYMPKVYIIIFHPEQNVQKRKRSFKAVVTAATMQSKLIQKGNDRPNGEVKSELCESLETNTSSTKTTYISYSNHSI
row,Compound,z-score
1,CN1CCN(C(N)=NC(=O)c2ccccc2)CC1,-0.332
2,O=C(C1CCC1)N1CCN(Cc2ccccc2)CC1,-0.147
3,COc1cccc(N2CCN(Cc3ccsc3)CC2)c1,-0.411
4,CCOC(=O)c1c(C)[nH]c(C(=O)COC(=O)CNC(=O)c2ccc(Br)cc2)c1C,-0.279
5,O=C(NC1CCCCC1)C(c1ccc(F)cc1)N(Cc1ccc2c(c1)OCO2)C(=O)c1cnsn1 (stereo not given),0.366
6,CC1S/C(=N/N=C2CCCCC2)NC1=O (stereo not given),-0.111
7,COc1ccc2c(c1)c(C(=O)N/N=C/c1ccc(O)c(O)c1)c(C)n2C,-0.489
8,Oc1ccccc1CNc1ncc(Br)cc1Br,-0.314
9,O=C(Cc1cccs1)N(Cc1cccs1)C1(C(=O)NC2CCCCC2)CCCCC1,-0.122
10,Cc1ccc(-n2c([C@@H]3C[C@H]3c3ccccc3)n[nH]c2=S)cc1,0.209
11,CCOCC(=O)Nc1nc2ccccc2s1,1.22
12,CCOC(=O)c1nnn(-c2nonc2N)c1-c1ccc(OCC)cc1,-1.5
13,COc1ccc2c(c1)SCCC2=O,0.808
14,O=C(Cn1cccc1C(=O)c1ccccc1)NCCN1CCOCC1,0.121
15,CC1(C)CC2CC(C)(CN2S(=O)(=O)c2ccc(C(=O)Nc3ccc(Cl)c(S(=O)(=O)N4CCOCC4)c3)cc2)C1 (stereo not given),-0.192
16,CCCCn1c(SCC(=O)N2CCCCC2C)nc2cc(S(N)(=O)=O)ccc21 (stereo not given),-0.0364
17,COc1ccc(-c2nn(-c3ccccc3)cc2C(=O)Nc2nccs2)cc1,0.207
18,c1ccc2c(c1)CCCN2Cc1nnnn1CC1CCCO1 (stereo not given),0.812
19,Clc1cccc(NCc2nnc(SCc3ccccc3Cl)o2)c1,-0.167
20,CCOC(=O)C1=C(C)Nc2nc3ccccc3n2C1c1cccs1 (stereo not given),-0.405
21,O=c1c2ccccc2[nH]c(=S)n1CCN1CCN(Cc2ccccc2)CC1,active: 7.91
22,CCN1C(=O)c2ccc(C(=O)NCc3ccccc3)cc2C1=O,-0.278

row,Compound,z-score
1,Cc1ccc(C(=O)NNC(=O)CCCN2C(=O)/C(=C/c3ccccc3Cl)SC2=S)cc1,0.165
2,COc1ccc(C(=O)/C=C/Nc2cccc(O)c2)cc1,-0.288
3,O=c1c2ccccc2sn1-c1ccc(S(=O)(=O)N2CCCC2)cc1,-0.648
4,Cc1c(Nc2c3c(c(C#N)c4nc5ccccc5n24)CCC3)c(=O)n(-c2ccccc2)n1C,-0.534
5,COc1ccc(/C=C/C(=O)NC(=S)Nc2ccccc2C(=O)NC2CCCCC2)cc1,0.0315
6,O=C(c1ccccc1)c1ccc(OCC(O)CN2CCN(Cc3ccccc3)CC2)cc1 (stereo not given),0.346
7,CCCCOC(=O)C(C)Nc1n[nH]c(=O)[nH]c1=O (stereo not given),0.118
8,CC(C)(C)c1cc(C(c2cccnc2)N2CCN(CCO)CC2)cc(C(C)(C)C)c1O (stereo not given),0.0819
9,COc1cc2c(cc1NC(=O)c1cccc([N+](=O)[O-])c1C)oc1ccccc12,-0.165
10,CCCCSc1nc2c(=O)[nH][nH]c(=O)c2n1Cc1ccccc1,-1.36
11,C=CCn1c(-c2cccc(OC)c2)n[nH]c1=S,-0.21
12,COc1ccc(C2C(C(=O)N3CCN(c4ccccn4)CC3)CC(=O)N2c2ccc(OC)cc2)cc1 (stereo not given),-0.0727
13,COc1cc(Br)cc2cc(C(=O)OC3CCN(C)CC3)c(=O)oc12,1.69
14,Cc1cc(NC(=O)CCC2COc3ccccc3O2)no1 (stereo not given),0.915
15,CC(=O)Nc1ccc(S(=O)(=O)Nc2nc3ccccc3nc2Nc2ccc3ccccc3c2)cc1,-0.191
16,O=C1CCC(C(=O)Nc2ccccc2)N1 (stereo not given),0.234
17,O=c1c2ccccc2nc(/C=C/c2c[nH]c3ccccc23)n1-c1ccc([N+](=O)[O-])cc1,-0.196
18,O=C(Cn1cnc2ccccc21)N/N=C/c1cccs1,0.463
19,COc1ccc(Cl)cc1NC(=O)CN1CCC(n2nnc3ccccc32)CC1,-1.05
20,Cc1cccc(CSc2nnc(NC(=O)c3ccco3)s2)c1,-0.183
21,CCCCCOc1ccc(Br)cc1CSC(=N)N,1.59
22,COc1cc(SC)ccc1C(=O)OC1CCOC1=O (stereo not given),-0.0339

row,Compound,z-score
1,COc1cc(-c2nnc(COC(=O)c3c4c(nc5ccccc35)CCCC4)o2)cc(OC)c1OC,-0.71
2,COc1ccc(C2C(C(C)=O)=C(Nc3ccccc3)CC(C)(O)C2C(C)=O)cc1OC (stereo not given),-0.11
3,COc1ccc(NC(=O)Cn2nnc(C(=O)NCc3ccccc3OC)c2N)cc1Cl,-0.146
4,COc1ccc(CC(=O)NNC(=O)CSc2nnc(Cc3ccc(OC)cc3)n2-c2ccccc2)cc1,-0.277
5,O=S(N1CCCCCC1)C12CC3CC(CC(C3)C1)C2 (stereo not given),-0.453
6,Cc1cc(C)n(-c2ccc(Cl)c(C(=O)Nc3cc(C(F)(F)F)ccc3Cl)n2)n1,0.25
7,CCOC(=O)C(C)Sc1nc(-c2ccccc2)nc2ccc(F)cc12 (stereo not given),-0.185
8,COc1ccc(-n2nc(C(=O)Nc3nc4ccc(OC)cc4s3)c3ccccc3c2=O)cc1,-0.174
9,CCOC(=O)c1[nH]c2ccc(Cl)cc2c1NC(=O)c1nonc1C,-0.0646
10,COCC(=O)N=Nc1c(O)[nH]c2ccccc12,-0.146
11,COc1ccc(-c2nc(NC(=O)Cn3ccc(C(F)(F)F)n3)sc2C)cc1,0.268
12,CC(C)(C)c1cc(/C=N/NC(=O)Cc2nc3ccccc3[nH]2)cc(C(C)(C)C)c1O,-0.238
13,Cc1ccc(S(=O)(=O)C(F)(F)F)cc1NC(=O)c1cccnc1,-0.181
14,CC(C)S(=O)(=O)C1=NSC2=NC(=O)/C(=C\c3ccc(-c4ccccc4)o3)C(=N)N21,-0.673
15,COc1cccc(NC(=O)CSc2nnc(Cc3cccn3C)n2-c2ccc(F)cc2)c1,-0.673
16,COc1ccc(-c2cc(C(=O)O)c3c(C)nn(-c4ccccn4)c3n2)cc1,-0.0513
17,C#CCOC(=O)C(NC(=O)c1ccccc1)=C(C)C,-0.0291
18,COc1ccc(C(=O)N2CCN(S(=O)(=O)c3ccc(Cl)cc3)CC2)cc1OC,-0.647
19,COc1ccc(Nc2cc(C(=O)NCCCN3CCN(C)CC3)c3ccccc3n2)c(OC)c1,0.657
20,O=C1c2ccccc2C(=O)N1CC(=O)N1c2ccccc2Sc2ccccc21,-0.494
21,CCN(CC)S(=O)(=O)c1cccc(NC(=O)/C=C/c2ccc([N+](=O)[O-])cc2)c1,-0.143
22,COc1cc(C2N(C)CCC3(OCCO3)C2(C)C)cc(OC)c1OC (stereo not given),-0.0713

row,Compound,z-score
1,O=C1CCc2cc(S(=O)(=O)N3CCN(C(=O)c4ccco4)CC3)ccc2N1,1.15
2,NS(=O)(=O)c1ccc(CNC(=O)c2ccc(Br)o2)cc1,0.122
3,Cc1cc(Nc2ccccc2)n(C(=O)c2ccc(Cl)cc2)n1,0.82
4,Cc1cc(C)cc(NC(=O)CSc2nc3ccncc3[nH]2)c1,2.24
5,Cc1ccc(CS(=O)(=O)c2ccccc2-c2nnc(-c3ccc(Cl)cc3)o2)cc1,-0.114
6,CN(C(=O)c1ccc(S(=O)(=O)N2CCCC2)cc1)C1CCCCC1,-1.05
7,COc1cc(CNn2c(C)n[nH]c2=S)cc(Cl)c1OCc1ccc(F)cc1,-0.033
8,O=S(=O)(/N=C/c1ccccc1O)c1cccs1,-0.0386
9,COc1cccc(-c2n[nH]c(=S)n2Cc2ccco2)c1OC,0.0257
10,Nc1ncnc(Nc2ccc(F)cc2)n1,0.0495
11,CCC(=O)NC(O)C(=O)c1ccc(C)cc1 (stereo not given),-0.133
12,Cc1cc(C)cc(N2C(=O)CC(N(C(=O)c3ccco3)c3cc(C)cc(C)c3)C2=O)c1 (stereo not given),-0.359
13,Cc1ccc(NS(=O)(=O)c2ccc3c(c2)C(=O)c2ccccc2C3=O)c(C)c1,-0.0521
14,COC(=O)c1ccc(/C=N/N2CCN(Cc3ccc(C)cc3C)CC2)cc1,2.42
15,Cc1cc(C)c(S(=O)(=O)N(CC(=O)N2CCCC2)C2CCCCC2)c(C)c1,-0.688
16,O=C(Nc1ccc(Cl)cc1C(=O)NCCN1CCOCC1)c1ccc(Cl)cc1Cl,-0.842
17,CC(C)CC(=O)Nc1ccccc1N1CCN(C(=O)c2ccccc2)CC1,-2.63
18,O=C(CCn1cccc1)NC1CCCc2ccccc21 (stereo not given),-0.136
19,Cc1ccc(C)c(C(=O)CC2(O)C(=O)N(C)c3ccccc32)c1 (stereo not given),-0.422
20,O=C(CN1CCN(C2CCCCC2)CC1)Nc1ccccc1-c1ccccc1,0.348
21,CN(CC(=O)O/N=C(\N)c1ccccn1)S(=O)(=O)c1ccccc1,-0.352
22,Cc1ccc(NC(=O)N/C=C/c2ccco2)c(C)c1,-0.28

row,Compound,z-score
1,c1cncc(-c2nn3c(Cn4cnc5ccccc54)nnc3s2)c1,0.0748
2,O=C(C[n+]1ccccc1)Nc1cc(C(F)(F)F)ccc1Cl,-0.138
3,COc1ccccc1-n1c(SCC(=O)N2CCCCC2)nc2cccnc21,-0.234
4,O=C(CCSc1ccccc1)Nc1nccs1,0.115
5,O=C(c1cccs1)c1ccc(-c2cccs2)s1,-0.213
6,Fc1ccc(-c2cnc[nH]2)cc1,-0.0766
7,O=C1NC(c2ccco2)Nc2ccccc21 (stereo not given),0.126
8,COc1ccccc1N(CC(=O)NCc1ccccn1)S(C)(=O)=O,-0.398
9,Cc1cccc(CSc2nnnn2-c2ccccc2)c1,-0.134
10,Cc1ccc(C(=O)NNC(=O)CSc2nnc3c(n2)[nH]c2ccc(C)cc23)cc1,0.0348
11,CC(C)=C1C2CCC1C1C(=O)N(c3nc(-c4ccccc4)c(C)s3)C(=O)C21 (stereo not given),-0.116
12,CCCSc1nnc(Cn2c(=O)sc3ccccc32)n1-c1ccccc1,-0.182
13,CC(C)(C)NC(=O)C1CCN(C(=O)c2ccc(Br)cc2)CC1,-0.166
14,O=C(c1ccc(Br)s1)N1CCN(c2ncccn2)CC1,0.776
15,Cc1cccc(C)c1NC(=O)CN1N=NC2C(=O)N(c3cccc(Cl)c3)C(=O)C21 (stereo not given),-0.178
16,Cc1cc(C)c2c(N)c(C(=O)c3ccc(Cl)cc3Cl)sc2n1,-0.216
17,C#CCONC(=O)c1cc(OCC(F)(F)F)ccc1OCC(F)(F)F,-0.0792
18,CC1(C)CC(=O)c2sc(NC(=O)C3COc4ccccc4O3)nc2C1 (stereo not given),-0.113
19,Cc1cccc(C)c1NC(=O)CSc1nnc(-c2ccccc2)n1Cc1ccc2c(c1)OCO2,-0.423
20,O=C(NNS(=O)(=O)c1ccc(Br)cc1)c1ccncc1,-0.199
21,COc1cc(OC)cc(C(=O)Nc2cc(NC(=O)c3ccco3)ccc2OC)c1,-0.995
22,CCCCn1c(-c2csc(C(C)C)c2)n[nH]c1=S,active: 6.36
